The supplement of paper PMC8728848
The other results are listed elsewhere or left out.

How the values were obtained:
Test in all cases: glycan array binding signal (z-score within array); higher = stronger binding
Details in all cases: glycan notation: IUPAC condensed, linker removed; mutation: R186I
[1] = molecular target: Gal(b1-3)GalNAc(a1-3)[Fuc(a1-2)]Gal(b1-4)GlcNAc
Method in brief: (§1)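 Glycan array binding is given as a within-array Z-score, which can be read as non-binding when negative. The arrays, 3228 of them, came from the Consortium for Functional Glycomics database and were retained only where the protein sequence was available. Z-scores were averaged across arrays of the same protein sequence at different concentrations or buffers and across linkers.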

[2] = molecular target: Gal(b1-3)GalNAc(b1-3)Gal(a1-4)Gal(b1-4)Glc
Method in brief: as §1

[3] = molecular target: Gal(b1-3)GalNAc(b1-4)Gal(b1-4)Glc
Method in brief: as §1

[4] = molecular target: Gal(b1-3)GalNAc(b1-4)[Neu5Ac(a2-3)]Gal(b1-4)Glc
Method in brief: as §1

[5] = molecular target: Gal(b1-3)GlcNAc
Method in brief: as §1

[6] = molecular target: Gal(b1-3)GlcNAc(a1-6)Gal(b1-4)GlcNAc
Method in brief: as §1

[7] = molecular target: Gal(b1-3)GlcNAc(b1-2)Man(a1-3)[Gal(b1-3)GlcNAc(b1-2)Man(a1-6)]Man(b1-4)GlcNAc(b1-4)GlcNAc
Method in brief: as §1

[8] = molecular target: Gal(b1-3)GlcNAc(b1-2)Man(a1-3)[Gal(b1-3)GlcNAc(b1-2)Man(a1-6)]Man(b1-4)GlcNAc(b1-4)[Fuc(a1-6)]GlcNAc
Method in brief: as §1

[9] = molecular target: Gal(b1-3)GlcNAc(b1-3)Gal(b1-3)GlcNAc
Method in brief: as §1

[10] = molecular target: Gal(b1-3)GlcNAc(b1-3)Gal(b1-4)Glc
Method in brief: as §1

[11] = molecular target: Gal(b1-3)GlcNAc(b1-3)Gal(b1-4)GlcNAc
Method in brief: as §1

[12] = molecular target: Gal(b1-3)GlcNAc(b1-3)Gal(b1-4)GlcNAc(b1-6)[Gal(b1-3)GlcNAc(b1-3)]Gal(b1-4)Glc
Method in brief: as §1

[13] = molecular target: Gal(b1-3)GlcNAc(b1-3)Gal(b1-4)[Fuc(a1-3)]GlcNAc(b1-6)[Gal(b1-3)GlcNAc(b1-3)]Gal(b1-4)Glc
Method in brief: as §1

[14] = molecular target: Gal(b1-3)GlcNAc(b1-3)GalNAc
Method in brief: as §1

[15] = molecular target: Gal(b1-3)GlcNAc(b1-6)Gal(b1-4)GlcNAc
Method in brief: as §1

[16] = molecular target: Gal(b1-3)[Fuc(a1-4)]GlcNAc
Method in brief: as §1

[17] = molecular target: Gal(b1-3)[Fuc(a1-4)]GlcNAc(b1-2)Man(a1-3)[Gal(b1-3)[Fuc(a1-4)]GlcNAc(b1-2)Man(a1-6)]Man(b1-4)GlcNAc(b1-4)GlcNAc
Method in brief: as §1

[18] = molecular target: Gal(b1-3)[Fuc(a1-4)]GlcNAc(b1-2)Man(a1-3)[Gal(b1-3)[Fuc(a1-4)]GlcNAc(b1-2)Man(a1-6)]Man(b1-4)GlcNAc(b1-4)[Fuc(a1-6)]GlcNAc
Method in brief: as §1

[19] = molecular target: Gal(b1-3)[Fuc(a1-4)]GlcNAc(b1-3)Gal(b1-3)[Fuc(a1-4)]GlcNAc
Method in brief: as §1

[20] = molecular target: Gal(b1-3)[Fuc(a1-4)]GlcNAc(b1-3)Gal(b1-4)GlcNAc
Method in brief: as §1

[21] = molecular target: Gal(b1-3)[Fuc(a1-4)]GlcNAc(b1-3)Gal(b1-4)[Fuc(a1-3)]GlcNAc
Method in brief: as §1

[22] = molecular target: Gal(b1-3)[GlcNAc(b1-6)]GalNAc
Method in brief: as §1

[23] = molecular target: Gal(b1-3)[Neu5Ac(a2-6)]GalNAc
Method in brief: as §1

[24] = molecular target: Gal(b1-3)[Neu5Ac(a2-6)]GlcNAc(b1-6)Gal(b1-4)Glc
Method in brief: as §1

[25] = molecular target: Gal(b1-3)[Neu5Ac(b2-6)]GalNAc
Method in brief: as §1

[26] = molecular target: Gal(b1-4)GalNAc(a1-3)[Fuc(a1-2)]Gal(b1-4)GlcNAc
Method in brief: as §1

[27] = molecular target: Gal(b1-4)GalNAc(b1-3)[Fuc(a1-2)]Gal(b1-4)GlcNAc
Method in brief: as §1

[28] = molecular target: Gal(b1-4)Glc
Method in brief: as §1

[29] = molecular target: Gal(b1-4)Glc6S
Method in brief: as §1

[30] = molecular target: Gal(b1-4)GlcNAc
Method in brief: as §1

[31] = molecular target: Gal(b1-4)GlcNAc(a1-6)Gal(b1-4)GlcNAc
Method in brief: as §1

[32] = molecular target: Gal(b1-4)GlcNAc(b1-2)Man(a1-3)Man(b1-4)GlcNAc(b1-4)GlcNAc
Method in brief: as §1

[33] = molecular target: Gal(b1-4)GlcNAc(b1-2)Man(a1-3)[Gal(b1-4)GlcNAc(b1-2)Man(a1-6)]Man(b1-4)GlcNAc(b1-4)GlcNAc
Method in brief: as §1

[34] = molecular target: Gal(b1-4)GlcNAc(b1-2)Man(a1-3)[Gal(b1-4)GlcNAc(b1-2)Man(a1-6)]Man(b1-4)GlcNAc(b1-4)[Fuc(a1-6)]GlcNAc
Method in brief: as §1

[35] = molecular target: Gal(b1-4)GlcNAc(b1-2)Man(a1-3)[GlcNAc(b1-2)Man(a1-6)]Man(b1-4)GlcNAc(b1-4)GlcNAc
Method in brief: as §1

[36] = molecular target: Gal(b1-4)GlcNAc(b1-2)Man(a1-3)[Man(a1-6)]Man(b1-4)GlcNAc(b1-4)GlcNAc
Method in brief: as §1

[37] = molecular target: Gal(b1-4)GlcNAc(b1-2)Man(a1-6)Man(b1-4)GlcNAc(b1-4)GlcNAc
Method in brief: as §1

B1: Gal 3 (Homo sapiens), P17931 (protein)
chain: MADNFSLHDALSGSGNPNPQGWPGAWGNQPAGAGGYPGASYPGAYPGQAPPGAYPGQAPPGAYHGAPGAYPGAPAPGVYPGPPSGPGAYPSSGQPSAPGAYPATGPYGAPAGPLIVPYNLPLPGGVVPRMLITILGTVKPNANILDFQRGNDVAFHFNPRFNENNRRVIVCNTKLDNNWGREEIQSVFPFESGKPFKIQVLVEPDHFKVAVNDAHLLQYNHRVKKLNEISKLGISGDIDLTSASYTMI
glycan array binding signal (z-score) [1]: -0.146 | glycan array binding signal (z-score) [2]: -0.141 | glycan array binding signal (z-score) [3]: -0.075 | glycan array binding signal (z-score) [4]: -0.192 | glycan array binding signal (z-score) [5]: -0.177 | glycan array binding signal (z-score) [6]: -0.13 | glycan array binding signal (z-score) [7]: -0.191 | glycan array binding signal (z-score) [8]: -0.104 | glycan array binding signal (z-score) [9]: -0.19 | glycan array binding signal (z-score) [10]: 0.072 | glycan array binding signal (z-score) [11]: -0.166 | glycan array binding signal (z-score) [12]: -0.189 | glycan array binding signal (z-score) [13]: -0.002 | glycan array binding signal (z-score) [14]: -0.14 | glycan array binding signal (z-score) [15]: -0.173 | glycan array binding signal (z-score) [16]: -0.174 | glycan array binding signal (z-score) [17]: -0.173 | glycan array binding signal (z-score) [18]: -0.145 | glycan array binding signal (z-score) [19]: -0.132 | glycan array binding signal (z-score) [20]: -0.167 | glycan array binding signal (z-score) [21]: -0.184 | glycan array binding signal (z-score) [22]: -0.128 | glycan array binding signal (z-score) [23]: -0.186 | glycan array binding signal (z-score) [24]: 0.101 | glycan array binding signal (z-score) [25]: -0.066 | glycan array binding signal (z-score) [26]: -0.15 | glycan array binding signal (z-score) [27]: -0.185 | glycan array binding signal (z-score) [28]: -0.176 | glycan array binding signal (z-score) [29]: -0.082 | glycan array binding signal (z-score) [30]: -0.142 | glycan array binding signal (z-score) [31]: -0.165 | glycan array binding signal (z-score) [32]: 0.022 | glycan array binding signal (z-score) [33]: -0.039 | glycan array binding signal (z-score) [34]: -0.19 | glycan array binding signal (z-score) [35]: 0.079 | glycan array binding signal (z-score) [36]: -0.162 | glycan array binding signal (z-score) [37]: 0.13
